# From the supplement of paper PMC12645437, “Orthogonal IMiD-Degron Pairs Induce Selective Protein Degradation in Cells” (ACS Chemical Biology, 2025)
# This is one part of the list.
# Molecular target: no compound (DMSO)
# Experiment: log2 fold change of degron read counts, EGFP-low vs EGFP+ sorted cells; higher = lower degron-EGFP level without compound (poor expression or instability)
# Settings: compound: DMSO control; 18 h
# 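Also: jurkat cells carrying a lentiviral library of mutant zinc finger degrons fused to EGFP plus mCherry, mCherry+ cells FACS sorted, degron abundance counted by next-generation sequencing.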
row,Sequence,log2 fold change of degron read counts
1,FGCNQCGANFTQKGNLLRHIKL,-0.397
2,FRCEQCGATFTQKGNLLRHIKL,-1.6
3,FCCPICGRAFTQKGNLLRHIKL,-0.178
4,FKCSVCGHAFTQKGNLLRHIKL,-0.648
5,FHCDQCGARFTQKGNLLRHIKL,-1.16
6,FGCNQCGRQFTQKGNLLRHIKL,0.0492
7,FHCDVCGADFTQKGNLLRHIKL,-2.43
8,FYCEVCGAHFTQKGNLLRHIKL,-1.04
9,FRCNICGAYFTQKGNLLRHIKL,0.71
10,LTCEICGFVCTQKGNLLRHIKL,-0.499
11,FKCEICGAFFTQKGNLLRHIKL,-1.35
12,FDCPICGRVFTQKGNLLRHIKL,0.146
13,FRCEVCGALFTQKGNLLRHIKL,-0.812
14,FDCPICGAEFTQKGNLLRHIKL,-0.778
15,FNCEICGRYFTQKGNLLRHIKL,-0.913
16,FVCEICGHSFTQKGNLLRHIKL,-2.12
17,FACDICGAPFTQKGNLLRHIKL,0.0822
18,LMCEICGFDCTQKGNLLRHIKL,0.266
19,FKCEVCGALFTQKGNLLRHIKL,-1.43
20,FCCEICGHVFTQKGNLLRHIKL,-0.967
21,LFCPICGFDCTQKGNLLRHIKL,1.4
22,LACPICGFQCTQKGNLLRHIKL,0.51
23,FVCEVCGALFTQKGNLLRHIKL,-1.35
24,LSCNQCGFMCTQKGNLLRHIKL,0.873
25,FLCEICGRNFTQKGNLLRHIKL,-1.45

row,Sequence,log2 fold change of degron read counts
1,FDCEQCGAVFTQKGNLLRHIKL,-1.32
2,FYCPVCGAIFTQKGNLLRHIKL,0.19
3,FHCNQCGRMFTQKGNLLRHIKL,0.146
4,LICEICGFFCTQKGNLLRHIKL,1.21
5,LICNQCGFWCTQKGNLLRHIKL,1.73
6,FGCEICGADFTQKGNLLRHIKL,-1.19
7,FACEVCGAIFTQKGNLLRHIKL,-1.09
8,FYCEICGHGFTQKGNLLRHIKL,-0.643
9,FNCEICGHVFTQKGNLLRHIKL,-1.03
10,FACNICGAVFTQKGNLLRHIKL,-0.721
11,FKCPQCGAHFTQKGNLLRHIKL,-1.31
12,FWCNVCGARFTQKGNLLRHIKL,0.428
13,LSCEICGFFCTQKGNLLRHIKL,1.58
14,FICEICGHNFTQKGNLLRHIKL,-2.29
15,FFCEVCGAWFTQKGNLLRHIKL,-0.00992
16,LTCEICGFLCTQKGNLLRHIKL,0.582
17,FNCNVCGAVFTQKGNLLRHIKL,-0.749
18,FLCEICGRIFTQKGNLLRHIKL,0.561
19,FTCEICGAWFTQKGNLLRHIKL,-0.339
20,FCCNQCGATFTQKGNLLRHIKL,-0.88
21,FDCNICGAKFTQKGNLLRHIKL,-1.39
22,FNCPVCGAGFTQKGNLLRHIKL,-0.399
23,FECPICGHSFTQKGNLLRHIKL,-0.675
24,FHCNQCGAGFTQKGNLLRHIKL,-0.901
25,FTCPQCGALFTQKGNLLRHIKL,-1.4
